# Some of the results follow.
# What was measured:
# Assay in all cases: glycan array binding signal (z-score within array); higher = stronger binding
# Conditions in all cases: glycan notation: IUPAC condensed, linker removed
# [1] = target: Fuc(a1-2)Gal(b1-4)GlcNAc(b1-3)Gal(b1-4)GlcNAc(b1-3)Gal(b1-4)GlcNAc
# Method in brief: (§1)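 Arrays were curated from the Consortium for Functional Glycomics database, 3228 in total, and kept only where the protein sequence was available. Binding is expressed as a within-array Z-score. This score was averaged across arrays of the same protein sequence at different concentrations or buffers and across linkers, and negative values can be read as non-binding.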
# [2] = target: Fuc(a1-2)Gal(b1-4)GlcNAc(b1-3)GalNAc
# Method in brief: as §1
# [3] = target: Fuc(a1-2)Gal(b1-4)GlcNAc(b1-3)[Fuc(a1-2)Gal(b1-4)GlcNAc(b1-6)]GalNAc
# Method in brief: as §1
# [4] = target: Fuc(a1-2)Gal(b1-4)GlcNAc(b1-3)[Fuc(a1-3)[Gal(b1-4)]GlcNAc(b1-6)]Gal(b1-4)Glc
# Method in brief: as §1
# [5] = target: Fuc(a1-2)Gal(b1-4)GlcNAc(b1-6)GalNAc
# Method in brief: as §1
# [6] = target: Fuc(a1-2)Gal(b1-4)GlcNAc6S
# Method in brief: as §1
# [7] = target: Fuc(a1-2)Gal(b1-4)[Fuc(a1-3)]GlcNAc
# Method in brief: as §1
# [8] = target: Fuc(a1-2)Gal(b1-4)[Fuc(a1-3)]GlcNAc(b1-2)Man(a1-3)[Fuc(a1-2)Gal(b1-4)[Fuc(a1-3)]GlcNAc(b1-2)Man(a1-6)]Man(b1-4)GlcNAc(b1-4)[Fuc(a1-6)]GlcNAc
# Method in brief: as §1
# [9] = target: Fuc(a1-2)Gal(b1-4)[Fuc(a1-3)]GlcNAc(b1-2)[Fuc(a1-2)Gal(b1-4)[Fuc(a1-3)]GlcNAc(b1-4)]Man(a1-3)[Fuc(a1-2)Gal(b1-4)[Fuc(a1-3)]GlcNAc(b1-2)Man(a1-6)]Man(b1-4)GlcNAc(b1-4)GlcNAc
# Method in brief: as §1
# [10] = target: Fuc(a1-2)Gal(b1-4)[Fuc(a1-3)]GlcNAc(b1-3)Gal(b1-4)[Fuc(a1-3)]GlcNAc
# Method in brief: as §1
# [11] = target: Fuc(a1-2)Gal(b1-4)[Fuc(a1-3)]GlcNAc(b1-3)Gal(b1-4)[Fuc(a1-3)]GlcNAc(b1-3)Gal(b1-4)[Fuc(a1-3)]GlcNAc
# Method in brief: as §1
# [12] = target: Fuc(a1-2)Gal(b1-4)[Fuc(a1-3)]GlcNAc(b1-3)GalNAc
# Method in brief: as §1
# [13] = target: Fuc(a1-2)Gal(b1-4)[Fuc(a1-3)]GlcNAc(b1-3)[Neu5Ac(a2-6)Gal(b1-4)GlcNAc(b1-6)]Gal(b1-4)Glc
# Method in brief: as §1
# [14] = target: Fuc(a1-2)Gal3S(b1-4)GlcNAc
# Method in brief: as §1
# [15] = target: Fuc(a1-2)Gal6S(b1-3)GlcNAc
# Method in brief: as §1
# [16] = target: Fuc(a1-2)Gal6S(b1-3)GlcNAc6S
# Method in brief: as §1
# [17] = target: Fuc(a1-2)Gal6S(b1-4)Glc
# Method in brief: as §1
# [18] = target: Fuc(a1-2)Gal6S(b1-4)Glc6S
# Method in brief: as §1
# [19] = target: Fuc(a1-2)[Gal(a1-3)]Gal
# Method in brief: as §1
# [20] = target: Fuc(a1-2)[Gal(a1-3)]Gal(b1-3)GalNAc
# Method in brief: as §1
# [21] = target: Fuc(a1-2)[Gal(a1-3)]Gal(b1-3)GalNAc(b1-3)Gal(a1-4)Gal(b1-4)Glc
# Method in brief: as §1
# [22] = target: Fuc(a1-2)[Gal(a1-3)]Gal(b1-3)GlcNAc
# Method in brief: as §1
# [23] = target: Fuc(a1-2)[Gal(a1-3)]Gal(b1-3)GlcNAc(b1-2)Man(a1-3)[Fuc(a1-2)[Gal(a1-3)]Gal(b1-3)GlcNAc(b1-2)Man(a1-6)]Man(b1-4)GlcNAc(b1-4)GlcNAc
# Method in brief: as §1
# [24] = target: Fuc(a1-2)[Gal(a1-3)]Gal(b1-3)GlcNAc(b1-2)Man(a1-3)[Fuc(a1-2)[Gal(a1-3)]Gal(b1-3)GlcNAc(b1-2)Man(a1-6)]Man(b1-4)GlcNAc(b1-4)[Fuc(a1-6)]GlcNAc
# Method in brief: as §1
# [25] = target: Fuc(a1-2)[Gal(a1-3)]Gal(b1-3)GlcNAc(b1-3)GalNAc
# Method in brief: as §1
# [26] = target: Fuc(a1-2)[Gal(a1-3)]Gal(b1-3)GlcNAc(b1-6)GalNAc
# Method in brief: as §1
# [27] = target: Fuc(a1-2)[Gal(a1-3)]Gal(b1-4)Glc
# Method in brief: as §1
# [28] = target: Fuc(a1-2)[Gal(a1-3)]Gal(b1-4)GlcNAc
# Method in brief: as §1
# [29] = target: Fuc(a1-2)[Gal(a1-3)]Gal(b1-4)GlcNAc(b1-2)Man
# Method in brief: as §1
# [30] = target: Fuc(a1-2)[Gal(a1-3)]Gal(b1-4)GlcNAc(b1-2)Man(a1-3)[Fuc(a1-2)[Gal(a1-3)]Gal(b1-4)GlcNAc(b1-2)Man(a1-6)]Man(b1-4)GlcNAc(b1-4)GlcNAc
# Method in brief: as §1
binder,measurement,setting,value
FGFR2-Fc (protein) MVNVTDAISSGDDEDDTDGAEDFVSENSNNKRAPYWTNTEKMEKRLHAVPAANTVKFRCPAGGNPMPTMRWLKNGKEFKQEHRIGGYKVRNQHWSLIMESVVPSDKGNYTCVVENEYGSINHTYHLDVVERSPHRPILQAGLPANASTVVGGDVEFVCKVYSDAQPHIQWIKHVEKNGSKYGPDGLPYLKVLKHSGINSSNAEVLALFNVTEADAGEYICKVSNYIGQANQSAWLTVLPKQQAPGREKEITASPDYLETRPLEQKLISEEDLAANDILDYKDDDDKV,glycan array binding signal (z-score),[1],0.121
same,glycan array binding signal (z-score),[2],-0.058
same,glycan array binding signal (z-score),[3],-0.13
same,glycan array binding signal (z-score),[4],0.233
same,glycan array binding signal (z-score),[5],-0.267
same,glycan array binding signal (z-score),[6],0.683
same,glycan array binding signal (z-score),[7],0.349
same,glycan array binding signal (z-score),[8],0.212
same,glycan array binding signal (z-score),[9],0.812
same,glycan array binding signal (z-score),[10],0.919
same,glycan array binding signal (z-score),[11],-0.25
same,glycan array binding signal (z-score),[12],-0.401
same,glycan array binding signal (z-score),[13],-0.32
same,glycan array binding signal (z-score),[14],-0.391
same,glycan array binding signal (z-score),[15],-0.744
same,glycan array binding signal (z-score),[16],0.019
same,glycan array binding signal (z-score),[17],-0.378
same,glycan array binding signal (z-score),[18],-0.603
same,glycan array binding signal (z-score),[19],0.211
same,glycan array binding signal (z-score),[20],0.062
same,glycan array binding signal (z-score),[21],-0.58
same,glycan array binding signal (z-score),[22],-0.345
same,glycan array binding signal (z-score),[23],-0.096
same,glycan array binding signal (z-score),[24],-0.319
same,glycan array binding signal (z-score),[25],-0.093
same,glycan array binding signal (z-score),[26],0.66
same,glycan array binding signal (z-score),[27],-0.002
same,glycan array binding signal (z-score),[28],-0.525
same,glycan array binding signal (z-score),[29],-0.6
same,glycan array binding signal (z-score),[30],0.745
